Experimental data: the supplement of paper PMC4604168 (melanoma cell lines)
The list shows a part of the results. Repeats are few or missing, and single values can be far off.

Assays:
Experiment in all cases: cell count relative to DMSO control; melanoma cells; higher = more viable cells
Details in all cases: library dose: low library concentration; 72 h
WM115 = tested on: WM115
WM1716 = tested on: WM1716
WM1745 = tested on: WM1745
WM3526 = tested on: WM3526
WM3619 = tested on: WM3619
WM451Lu = tested on: WM451Lu
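Note: cell number obtained by counting DAPI-stained nuclei in high-throughput microscope images with image analysis software, screen run in 1,536-well plates.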

Structure (SMILES)	cell count (WM115) [%]	cell count (WM1716) [%]	cell count (WM1745) [%]	cell count (WM3526) [%]	cell count (WM3619) [%]	cell count (WM451Lu) [%]
O=C(O)[C@@H]1[O][Sb](=[O])([O][Sb]2(=[O])[O][C@H]([C@H](O)CO)[C@H](O)[C@H](C(=O)O)[O]2)[O][C@H]([C@H](O)CO)[C@@H]1O (some centres not stated) [stibogluconate] + CC(=O)c1c(C)c2cnc(Nc3ccc(N4CCNCC4)cn3)nc2n(C2CCCC2)c1=O [palbociclib] (first compound 2 µM, partner dose 0.04 µM)	81.5	69.8	60.2	59.8	72.8	78.6
O=C(Nc1ccccc1)c1cc([N+](=O)[O-])ccc1Cl + CCCCCCCCCCCC1=C(O)C(=O)C=C(O)C1=O [Embelin] (first compound 2 µM, partner dose 1.2 µM)	96	114	87.4	82.8	93.9	108
O=C(O)[C@@H]1[O][Sb](=[O])([O][Sb]2(=[O])[O][C@H]([C@H](O)CO)[C@H](O)[C@H](C(=O)O)[O]2)[O][C@H]([C@H](O)CO)[C@@H]1O (some centres not stated) [stibogluconate] + Oc1nc(-c2ccc(C(F)(F)F)cc2)nc2c1CSCC2 [XAV939] (first compound 2 µM, partner dose 2 µM)	94.2	54.4	94.4	114	85.9	88.2
O=C(Nc1cc(C(F)(F)F)cc(C(F)(F)F)c1)c1cc(Cl)ccc1O + CCN(CC)CCCCNc1ncc2cc(-c3cc(OC)cc(OC)c3)c(NC(=O)NC(C)(C)C)nc2n1 [PD173074] (first compound 0.016 µM, partner dose 0.1 µM)	97.4	109	108	111	121	96.6
Cc1cc(N2CCOCC2)cc2[nH]c(-c3c(NC[C@@H](O)c4cccc(Cl)c4)cc[nH]c3=O)nc12 + O=C(Nc1cccc(Cl)c1)Nc1ncc(CCNc2ncnc3ccsc23)s1 [SNS314] (first compound 0.2 µM, partner dose 0.0008 µM)	64.5	105	66.9	68.2	102	92
O=C(Nc1cc(C(F)(F)F)cc(C(F)(F)F)c1)c1cc(Cl)ccc1O + COC(=O)c1sccc1S(=O)(=O)Nc1ccc(Nc2ccccc2)cc1OC [GSK0660] (first compound 0.016 µM, partner dose 1 µM)	91.9	128	99.7	81.6	87.8	71.1
O=C(Nc1cc(C(F)(F)F)cc(C(F)(F)F)c1)c1cc(Cl)ccc1O + COc1ccc2c(c1)CCC1C2CCC2(C)C(NCCCCCCN3C(=O)C=CC3=O)CCC12 [U73122] (first compound 0.016 µM, partner dose 0.4 µM)	101	103	107	104	123	98.2
Cn1nnc2c(C(N)=O)ncn2c1=O [temozolomide] + CC1(C)NC(=O)N(c2ccc([N+](=O)[O-])c(C(F)(F)F)c2)C1=O [nilutamide] (first compound 2 µM, partner dose 1 µM)	85.6	80.6	97.1	94.3	72.6	98.6
O=C(O)[C@@H]1[O][Sb](=[O])([O][Sb]2(=[O])[O][C@H]([C@H](O)CO)[C@H](O)[C@H](C(=O)O)[O]2)[O][C@H]([C@H](O)CO)[C@@H]1O (some centres not stated) [stibogluconate] + COCC[n+]1c2c(n(Cc3cnccn3)c1C)C(=O)c1ccccc1C2=O [YM155] (first compound 2 µM, partner dose 0.0004 µM)	112	89.5	102	64.9	102	86.5
Cn1nnc2c(C(N)=O)ncn2c1=O [temozolomide] + OCCn1cc(-c2cnc3nnn(Cc4ccc5ncccc5c4)c3n2)cn1 [PF04217903] (first compound 2 µM, partner dose 1 µM)	95.2	76.7	83.3	91.5	82.8	91.7
O=C(O)[C@@H]1[O][Sb](=[O])([O][Sb]2(=[O])[O][C@H]([C@H](O)CO)[C@H](O)[C@H](C(=O)O)[O]2)[O][C@H]([C@H](O)CO)[C@@H]1O (some centres not stated) [stibogluconate] + O=C(Nc1cccc(Cl)c1)Nc1ncc(CCNc2ncnc3ccsc23)s1 [SNS314] (first compound 2 µM, partner dose 0.0008 µM)	90.8	122	96.1	84	104	59.9
O=C(O)[C@@H]1[O][Sb](=[O])([O][Sb]2(=[O])[O][C@H]([C@H](O)CO)[C@H](O)[C@H](C(=O)O)[O]2)[O][C@H]([C@H](O)CO)[C@@H]1O (some centres not stated) [stibogluconate] + CCCCCCCCCCCC1=C(O)C(=O)C=C(O)C1=O [Embelin] (first compound 2 µM, partner dose 1.2 µM)	102	95.1	102	107	123	112
Cn1nnc2c(C(N)=O)ncn2c1=O [temozolomide] + NCC(=O)Nc1ccc(-n2nc(C(F)(F)F)cc2-c2ccc3c(ccc4ccccc43)c2)cc1 [OSU03012] (first compound 2 µM, partner dose 1 µM)	101	101	97.6	59.8	101	55.6
O=C(O)[C@@H]1[O][Sb](=[O])([O][Sb]2(=[O])[O][C@H]([C@H](O)CO)[C@H](O)[C@H](C(=O)O)[O]2)[O][C@H]([C@H](O)CO)[C@@H]1O (some centres not stated) [stibogluconate] + Oc1cc(-c2nc(-c3ccccc3)[nH]c2-c2ccncc2)ccc1Cl [L779450] (first compound 2 µM, partner dose 0.2 µM)	74.6	121	86.7	72.4	96	104
O=C(O)[C@@H]1[O][Sb](=[O])([O][Sb]2(=[O])[O][C@H]([C@H](O)CO)[C@H](O)[C@H](C(=O)O)[O]2)[O][C@H]([C@H](O)CO)[C@@H]1O (some centres not stated) [stibogluconate] + COc1cc2c(Oc3ccc4[nH]c(C)cc4c3F)ncnc2cc1OCCCN1CCCC1 [cediranib] (first compound 2 µM, partner dose 0.4 µM)	103	95.4	89.8	102	123	111
O=C(O)c1ccc2c(c1)nc(Nc1cccc(Cl)c1)c1ccncc12 + O=C(O)C(=O)Nc1sc2c(c1C(=O)O)CCNC2 [TCS401] (first compound 0.4 µM, partner dose 1.66667 µM)	107	97.4	89.3	88.3	107	91.5
O=C(O)c1ccc2c(c1)nc(Nc1cccc(Cl)c1)c1ccncc12 + Cn1cncc1[C@@](N)(c1ccc(Cl)cc1)c1ccc2c(c1)c(-c1cccc(Cl)c1)cc(=O)n2C [tipifarnib] (first compound 0.4 µM, partner dose 0.01 µM)	99.7	79.5	84.6	79.1	62.1	77.7
O=C(Nc1cc(C(F)(F)F)cc(C(F)(F)F)c1)c1cc(Cl)ccc1O + CS(=O)(=O)c1ccc(C(=O)Nc2ccc(Cl)c(-c3ccccn3)c2)c(Cl)c1 [vismodegib] (first compound 0.016 µM, partner dose 1 µM)	100	108	115	126	118	112
O=C(Nc1cc(C(F)(F)F)cc(C(F)(F)F)c1)c1cc(Cl)ccc1O + CC(C)C[C@H](NC(=O)[C@H](Cc1ccccc1)NC(=O)c1cnccn1)B(O)O [Bortezomib] (first compound 0.016 µM, partner dose 0.001 µM)	86.9	80.6	75.5	103	48.2	84.5
Cn1nnc2c(C(N)=O)ncn2c1=O [temozolomide] + O=C(CCCCCCC(=O)Nc1ccccc1)NO [vorinostat] (first compound 2 µM, partner dose 0.08 µM)	110	106	103	111	88.4	84
O=C(O)[C@@H]1[O][Sb](=[O])([O][Sb]2(=[O])[O][C@H]([C@H](O)CO)[C@H](O)[C@H](C(=O)O)[O]2)[O][C@H]([C@H](O)CO)[C@@H]1O (some centres not stated) [stibogluconate] + c1cc(-c2cnn3cc(-c4ccc(OCCN5CCCCC5)cc4)cnc23)ccn1 [Dorsomorphin] (first compound 2 µM, partner dose 0.4 µM)	110	112	101	90.7	116	93.6
O=C(O)c1ccc2c(c1)nc(Nc1cccc(Cl)c1)c1ccncc12 + Clc1ccc(Nc2nnc(Cc3ccncc3)c3ccccc23)cc1 [vatalanib] (first compound 0.4 µM, partner dose 2 µM)	103	80.9	93	81.5	81.3	91.3
